No constants are given. Whether binding was seen depends on the method and setting. In cells and extracts the contact can be indirect. Some results given as binding are weak or reduced against the parent protein; the word gives no strength. For some assays here: Sequences can lack the tags named with a protein.
T1: Flag-PFKP (Phosphofructokinase, Platelet Type, labeled with a 3x Flag tag) (UniProt Q01813)
T1 sequence: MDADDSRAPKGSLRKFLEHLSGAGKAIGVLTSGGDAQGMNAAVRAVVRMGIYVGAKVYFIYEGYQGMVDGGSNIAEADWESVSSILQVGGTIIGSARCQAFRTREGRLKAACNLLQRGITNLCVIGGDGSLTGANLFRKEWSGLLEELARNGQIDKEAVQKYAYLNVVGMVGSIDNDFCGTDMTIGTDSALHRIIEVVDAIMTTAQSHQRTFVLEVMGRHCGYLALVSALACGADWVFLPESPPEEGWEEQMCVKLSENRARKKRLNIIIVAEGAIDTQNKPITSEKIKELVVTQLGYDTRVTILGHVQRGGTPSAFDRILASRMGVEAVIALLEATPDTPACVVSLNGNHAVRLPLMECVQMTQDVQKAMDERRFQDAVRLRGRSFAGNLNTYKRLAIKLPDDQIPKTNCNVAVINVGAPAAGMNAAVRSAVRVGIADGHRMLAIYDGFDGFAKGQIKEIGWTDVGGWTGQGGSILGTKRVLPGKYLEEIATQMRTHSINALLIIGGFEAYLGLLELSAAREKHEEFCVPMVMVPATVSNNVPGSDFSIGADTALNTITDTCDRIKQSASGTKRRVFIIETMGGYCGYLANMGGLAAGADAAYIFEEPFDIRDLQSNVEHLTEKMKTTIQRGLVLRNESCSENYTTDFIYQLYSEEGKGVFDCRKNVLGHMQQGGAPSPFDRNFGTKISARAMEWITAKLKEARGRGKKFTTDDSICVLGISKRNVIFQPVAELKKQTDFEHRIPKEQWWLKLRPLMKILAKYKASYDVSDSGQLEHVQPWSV

By UniProt entry, the sequences of proteins in these tests, tags left out. Residues count along the entry.
UniProt P30530, residues 26-894: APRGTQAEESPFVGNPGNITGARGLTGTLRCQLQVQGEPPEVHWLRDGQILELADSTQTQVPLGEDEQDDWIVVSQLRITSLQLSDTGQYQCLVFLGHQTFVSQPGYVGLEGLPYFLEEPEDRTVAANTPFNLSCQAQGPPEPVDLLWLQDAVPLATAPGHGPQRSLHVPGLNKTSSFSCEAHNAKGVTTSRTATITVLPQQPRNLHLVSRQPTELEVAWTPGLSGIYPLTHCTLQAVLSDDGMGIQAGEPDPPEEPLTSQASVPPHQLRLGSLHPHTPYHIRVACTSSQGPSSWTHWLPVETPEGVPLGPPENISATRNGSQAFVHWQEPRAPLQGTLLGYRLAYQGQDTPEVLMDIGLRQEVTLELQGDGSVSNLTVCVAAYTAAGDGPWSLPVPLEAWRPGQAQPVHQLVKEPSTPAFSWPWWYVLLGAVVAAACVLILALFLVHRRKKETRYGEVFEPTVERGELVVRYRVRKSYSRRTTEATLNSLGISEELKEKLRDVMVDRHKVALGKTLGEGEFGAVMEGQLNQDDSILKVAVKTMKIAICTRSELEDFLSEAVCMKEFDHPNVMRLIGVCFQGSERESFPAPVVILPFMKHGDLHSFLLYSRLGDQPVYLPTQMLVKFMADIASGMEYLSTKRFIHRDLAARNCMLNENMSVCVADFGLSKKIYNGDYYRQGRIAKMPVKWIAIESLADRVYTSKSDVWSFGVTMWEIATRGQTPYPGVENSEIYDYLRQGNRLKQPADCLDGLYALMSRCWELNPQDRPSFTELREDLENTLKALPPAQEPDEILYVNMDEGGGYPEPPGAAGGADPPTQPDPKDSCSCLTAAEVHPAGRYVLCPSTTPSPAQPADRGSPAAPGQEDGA
UniProt P08581, residues 25-1390: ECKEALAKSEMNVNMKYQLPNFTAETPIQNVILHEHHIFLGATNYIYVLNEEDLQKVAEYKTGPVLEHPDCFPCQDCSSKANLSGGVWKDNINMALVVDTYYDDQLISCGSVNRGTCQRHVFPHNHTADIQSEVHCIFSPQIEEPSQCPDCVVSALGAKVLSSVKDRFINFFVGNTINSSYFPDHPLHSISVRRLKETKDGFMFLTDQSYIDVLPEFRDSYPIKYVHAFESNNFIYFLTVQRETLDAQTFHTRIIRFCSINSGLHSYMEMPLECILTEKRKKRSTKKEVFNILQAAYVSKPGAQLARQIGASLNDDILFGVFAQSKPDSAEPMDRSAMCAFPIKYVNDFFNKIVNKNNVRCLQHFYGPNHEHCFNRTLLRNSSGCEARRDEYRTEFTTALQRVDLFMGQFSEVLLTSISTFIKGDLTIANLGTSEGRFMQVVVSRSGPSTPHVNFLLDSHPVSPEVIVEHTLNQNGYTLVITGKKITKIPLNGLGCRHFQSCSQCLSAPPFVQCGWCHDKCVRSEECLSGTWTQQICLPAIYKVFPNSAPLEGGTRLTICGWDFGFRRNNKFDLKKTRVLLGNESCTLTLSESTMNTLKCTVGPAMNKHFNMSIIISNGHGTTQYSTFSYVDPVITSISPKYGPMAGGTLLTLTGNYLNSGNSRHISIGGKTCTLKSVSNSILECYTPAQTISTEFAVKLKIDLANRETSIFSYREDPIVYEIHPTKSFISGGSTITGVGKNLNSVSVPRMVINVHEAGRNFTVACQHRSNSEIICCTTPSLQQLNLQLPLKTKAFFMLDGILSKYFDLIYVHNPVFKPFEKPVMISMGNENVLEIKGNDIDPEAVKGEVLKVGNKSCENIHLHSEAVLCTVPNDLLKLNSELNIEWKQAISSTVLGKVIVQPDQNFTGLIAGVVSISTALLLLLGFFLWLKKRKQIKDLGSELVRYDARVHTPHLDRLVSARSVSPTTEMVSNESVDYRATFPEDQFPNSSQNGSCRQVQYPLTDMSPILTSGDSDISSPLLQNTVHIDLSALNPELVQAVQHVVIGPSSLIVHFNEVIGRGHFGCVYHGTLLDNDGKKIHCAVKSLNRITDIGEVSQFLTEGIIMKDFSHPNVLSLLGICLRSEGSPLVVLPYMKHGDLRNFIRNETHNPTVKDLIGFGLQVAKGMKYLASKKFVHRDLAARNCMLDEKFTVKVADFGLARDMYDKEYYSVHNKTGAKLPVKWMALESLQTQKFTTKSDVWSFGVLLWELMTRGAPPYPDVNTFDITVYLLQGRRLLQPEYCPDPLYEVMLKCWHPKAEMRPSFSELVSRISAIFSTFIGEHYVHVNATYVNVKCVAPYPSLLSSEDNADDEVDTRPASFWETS

T2: endogenous PFKP (Phosphofructokinase, Platelet Type) (human (endogenous in H1299)) (UniProt Q01813)
T2 sequence: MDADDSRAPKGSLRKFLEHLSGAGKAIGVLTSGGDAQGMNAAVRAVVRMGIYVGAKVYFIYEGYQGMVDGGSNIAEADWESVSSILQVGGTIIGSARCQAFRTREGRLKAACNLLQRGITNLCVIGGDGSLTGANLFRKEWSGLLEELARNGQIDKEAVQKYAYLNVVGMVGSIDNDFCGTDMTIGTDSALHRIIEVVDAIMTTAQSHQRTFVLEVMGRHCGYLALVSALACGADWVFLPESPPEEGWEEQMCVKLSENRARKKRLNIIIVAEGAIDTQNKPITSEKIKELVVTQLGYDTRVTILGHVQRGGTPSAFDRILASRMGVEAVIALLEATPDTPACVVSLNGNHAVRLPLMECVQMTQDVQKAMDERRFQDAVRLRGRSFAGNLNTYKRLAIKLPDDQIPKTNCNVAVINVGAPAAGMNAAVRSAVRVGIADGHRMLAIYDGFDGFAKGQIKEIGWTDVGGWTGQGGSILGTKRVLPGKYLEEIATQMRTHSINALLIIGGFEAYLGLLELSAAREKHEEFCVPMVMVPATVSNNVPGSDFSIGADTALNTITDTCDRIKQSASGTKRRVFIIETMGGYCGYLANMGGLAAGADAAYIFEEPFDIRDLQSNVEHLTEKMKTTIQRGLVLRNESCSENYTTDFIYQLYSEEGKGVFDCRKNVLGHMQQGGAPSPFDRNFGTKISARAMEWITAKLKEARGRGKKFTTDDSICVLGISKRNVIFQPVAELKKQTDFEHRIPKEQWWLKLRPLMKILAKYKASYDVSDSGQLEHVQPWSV


Key:
[1] = target: T1, Flag-PFKP (Phosphofructokinase, Platelet Type, labeled with a 3x Flag tag); assay: co-IP; anti-Flag magnetic beads on lysate of H1299 cells transfected with Flag-PFKP; Western blot
[2] = target: T2, endogenous PFKP (Phosphofructokinase, Platelet Type) (human (endogenous in H1299)); assay: co-IP; anti-PFKP antibody on lysate of H1299 cells without Flag-PFKP transfection; Western blot
[3] = target: tyrosine-protein kinase receptor UFO (AXL) (human (endogenous in H1299)) (UniProt P30530); assay: co-IP; AXL (C89E7) antibody added to the lysate overnight, then magnetic beads; H1299 cells with Flag-PFKP or without Flag-PFKP; Western blot

| binding [1] | binding [2] | binding [3] | Molecule |
| --- | --- | --- | --- |
| binds | binds |  | tyrosine-protein kinase receptor UFO (AXL) (from UniProt P30530 26-894) |
| no binding |  |  | MET (MET proto-oncogene, Receptor Tyrosine Kinase) (from UniProt P08581 25-1390) |
|  |  | binds | Flag-PFKP (Phosphofructokinase, Platelet Type, labeled with a 3x Flag tag) (enzyme, UniProt Q01813 1-784) MDADDSRAPKGSLRKFLEHLSGAGKAIGVLTSGGDAQGMNAAVRAVVRMGIYVGAKVYFIYEGYQGMVDGGSNIAEADWESVSSILQVGGTIIGSARCQAFRTREGRLKAACNLLQRGITNLCVIGGDGSLTGANLFRKEWSGLLEELARNGQIDKEAVQKYAYLNVVGMVGSIDNDFCGTDMTIGTDSALHRIIEVVDAIMTTAQSHQRTFVLEVMGRHCGYLALVSALACGADWVFLPESPPEEGWEEQMCVKLSENRARKKRLNIIIVAEGAIDTQNKPITSEKIKELVVTQLGYDTRVTILGHVQRGGTPSAFDRILASRMGVEAVIALLEATPDTPACVVSLNGNHAVRLPLMECVQMTQDVQKAMDERRFQDAVRLRGRSFAGNLNTYKRLAIKLPDDQIPKTNCNVAVINVGAPAAGMNAAVRSAVRVGIADGHRMLAIYDGFDGFAKGQIKEIGWTDVGGWTGQGGSILGTKRVLPGKYLEEIATQMRTHSINALLIIGGFEAYLGLLELSAAREKHEEFCVPMVMVPATVSNNVPGSDFSIGADTALNTITDTCDRIKQSASGTKRRVFIIETMGGYCGYLANMGGLAAGADAAYIFEEPFDIRDLQSNVEHLTEKMKTTIQRGLVLRNESCSENYTTDFIYQLYSEEGKGVFDCRKNVLGHMQQGGAPSPFDRNFGTKISARAMEWITAKLKEARGRGKKFTTDDSICVLGISKRNVIFQPVAELKKQTDFEHRIPKEQWWLKLRPLMKILAKYKASYDVSDSGQLEHVQPWSV |
|  |  | binds | endogenous PFKP (Phosphofructokinase, Platelet Type) (enzyme, UniProt Q01813 1-784) MDADDSRAPKGSLRKFLEHLSGAGKAIGVLTSGGDAQGMNAAVRAVVRMGIYVGAKVYFIYEGYQGMVDGGSNIAEADWESVSSILQVGGTIIGSARCQAFRTREGRLKAACNLLQRGITNLCVIGGDGSLTGANLFRKEWSGLLEELARNGQIDKEAVQKYAYLNVVGMVGSIDNDFCGTDMTIGTDSALHRIIEVVDAIMTTAQSHQRTFVLEVMGRHCGYLALVSALACGADWVFLPESPPEEGWEEQMCVKLSENRARKKRLNIIIVAEGAIDTQNKPITSEKIKELVVTQLGYDTRVTILGHVQRGGTPSAFDRILASRMGVEAVIALLEATPDTPACVVSLNGNHAVRLPLMECVQMTQDVQKAMDERRFQDAVRLRGRSFAGNLNTYKRLAIKLPDDQIPKTNCNVAVINVGAPAAGMNAAVRSAVRVGIADGHRMLAIYDGFDGFAKGQIKEIGWTDVGGWTGQGGSILGTKRVLPGKYLEEIATQMRTHSINALLIIGGFEAYLGLLELSAAREKHEEFCVPMVMVPATVSNNVPGSDFSIGADTALNTITDTCDRIKQSASGTKRRVFIIETMGGYCGYLANMGGLAAGADAAYIFEEPFDIRDLQSNVEHLTEKMKTTIQRGLVLRNESCSENYTTDFIYQLYSEEGKGVFDCRKNVLGHMQQGGAPSPFDRNFGTKISARAMEWITAKLKEARGRGKKFTTDDSICVLGISKRNVIFQPVAELKKQTDFEHRIPKEQWWLKLRPLMKILAKYKASYDVSDSGQLEHVQPWSV |
